{"source": "PubChem BioAssay AID1347165", "about": "(National Center for Advancing Translational Sciences (NCATS), 2019)", "note": "Where “and” joins values, the source holds several entries; their conditions need not be identical. Identical values can stand only once. The whole screen tested about 220,000 compounds, of which about 5,700 (2.6%) were called active. Inconclusive results, whose numbers are uncertain, are shown with a selection of clear calls. Calls follow the shape of the dose curve; as a rule, active = well fitted inhibition curve with a large enough effect; inconclusive = small, poorly fitted or top-dose-only effect; inactive = no such curve, though single readings can be large or run the other way. A potency beside an inconclusive call is a rough fit, not a confirmed value. Potency is read from the fitted curve at half-maximal effect; tags tell the direction and shape of the fitted curve.", "data": [{"biological_target": "Lysine-specific demethylase 5B (Homo sapiens) (UniProt Q9UGL1)", "sequence (Q9UGL1 whole entry, looked up)": "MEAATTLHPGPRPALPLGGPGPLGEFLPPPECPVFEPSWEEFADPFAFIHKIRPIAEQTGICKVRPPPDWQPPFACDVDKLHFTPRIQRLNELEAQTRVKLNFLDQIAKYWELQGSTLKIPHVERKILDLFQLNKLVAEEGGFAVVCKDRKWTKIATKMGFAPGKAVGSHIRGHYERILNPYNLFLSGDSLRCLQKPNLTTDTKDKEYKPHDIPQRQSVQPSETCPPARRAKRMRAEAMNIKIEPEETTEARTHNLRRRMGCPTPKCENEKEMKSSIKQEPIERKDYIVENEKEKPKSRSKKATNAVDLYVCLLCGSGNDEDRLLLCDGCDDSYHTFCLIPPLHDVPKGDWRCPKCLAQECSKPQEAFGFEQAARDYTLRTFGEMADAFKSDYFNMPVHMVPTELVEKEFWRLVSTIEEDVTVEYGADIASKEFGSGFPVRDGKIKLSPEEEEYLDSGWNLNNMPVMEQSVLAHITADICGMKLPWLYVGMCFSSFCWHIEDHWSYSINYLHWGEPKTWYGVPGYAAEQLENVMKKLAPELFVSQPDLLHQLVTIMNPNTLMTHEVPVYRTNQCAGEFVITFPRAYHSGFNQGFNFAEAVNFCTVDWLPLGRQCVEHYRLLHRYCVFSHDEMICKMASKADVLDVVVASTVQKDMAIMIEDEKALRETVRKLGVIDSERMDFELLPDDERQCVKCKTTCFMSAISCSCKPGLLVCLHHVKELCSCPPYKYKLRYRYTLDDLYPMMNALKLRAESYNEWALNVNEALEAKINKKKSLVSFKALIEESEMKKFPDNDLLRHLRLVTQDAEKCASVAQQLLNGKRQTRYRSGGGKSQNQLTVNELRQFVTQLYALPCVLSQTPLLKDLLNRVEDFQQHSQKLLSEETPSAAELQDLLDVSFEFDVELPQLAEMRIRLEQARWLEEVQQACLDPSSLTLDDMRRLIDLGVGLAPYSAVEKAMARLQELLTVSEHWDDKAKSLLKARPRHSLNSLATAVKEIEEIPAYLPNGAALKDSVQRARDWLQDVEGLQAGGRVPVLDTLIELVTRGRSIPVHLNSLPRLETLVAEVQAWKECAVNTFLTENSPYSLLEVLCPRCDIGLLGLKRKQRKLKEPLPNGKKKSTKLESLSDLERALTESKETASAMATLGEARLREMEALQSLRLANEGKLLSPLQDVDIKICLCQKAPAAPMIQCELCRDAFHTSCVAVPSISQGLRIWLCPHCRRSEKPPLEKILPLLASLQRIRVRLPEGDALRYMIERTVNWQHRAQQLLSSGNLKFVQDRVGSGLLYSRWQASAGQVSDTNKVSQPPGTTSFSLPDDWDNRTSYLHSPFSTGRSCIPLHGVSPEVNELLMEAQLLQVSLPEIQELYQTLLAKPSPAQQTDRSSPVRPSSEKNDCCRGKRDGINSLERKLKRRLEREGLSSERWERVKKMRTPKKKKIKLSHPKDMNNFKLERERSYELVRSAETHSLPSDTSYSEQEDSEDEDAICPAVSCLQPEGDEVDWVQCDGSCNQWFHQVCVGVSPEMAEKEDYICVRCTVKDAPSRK", "test": "Primary screen for KDM5B Histone Demethylases FDH-coupled qHTS; also: nearly all actives have a fitted effect of over 70% in size; as to activity change, negative = inhibition: 0% is about no effect", "settings": "FDH-coupled NADH fluorescence (FDH is formaldehyde dehydrogenase); activity change, negative = inhibition: at 57.7 µM (top of the series) unless noted", "procedure,_shortened": "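Here, H3K4me3 peptide (12.5 µM in substrate mix) is demethylated by KDM5BΔAP, 200 nM final, after 10 min compound exposure. Formaldehyde product is coupled through FDH (0.25 U/mL in mix) to NADH fluorescence; 30-min ΔRFU feeds dose-response curves.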", "values": [{"smiles": "COCc1ccc2c(c1)c(OC(C)(C)C(=O)NCC[S+](C)(=O)[O-])nn2CCC(C)C", "Potency": "inconclusive: 39.8 µM [inhibitor, partial curve, poor fit]"}, {"smiles": "COc1ccccc1C(=O)N1CC(Oc2cccc(-c3nc(-c4ccccc4)no3)c2)C1", "Potency": "active: 22.4 µM"}, {"smiles": "CC(=O)Nc1cccc(-c2n[nH]c3c2CC(=O)N(Cc2ccccc2F)C3)c1", "activity change, negative = inhibition": "inactive: 19% [at 86.2 µM]"}, {"smiles": "CCCN(C(=O)CCc1nc(-c2ccc(C)cc2)no1)c1ccc(OCC)cc1", "activity change, negative = inhibition": "inconclusive: -31% [inhibitor]"}, {"smiles": "O=C(c1cccc2[nH]ccc12)N1CC(Oc2ccc(-c3nc(-c4ccccc4)no3)cc2)C1", "Potency": "active: 11.2 µM"}, {"smiles": "CCN(CC)c1nc2ccccc2nc1C(=O)Nc1ccc(C)c(C)c1", "activity change, negative = inhibition": "inactive: 4.42%"}, {"smiles": "CCOC(=O)c1c(C)oc2nc(C)nc(NCC3CCN(Cc4cc(C)ccc4C)CC3)c12", "activity change, negative = inhibition": "inconclusive: -34.2% [inhibitor]"}, {"smiles": "Cc1ccc(OCc2nc(C#N)c(N3CCOCC3)o2)cc1", "Potency": "inconclusive: 12.6 µM [inhibitor, partial curve, poor fit]"}, {"smiles": "Cc1ccc(-c2ocnc2C(=O)NCCC(C)C)s1", "Potency": "inconclusive: 20 µM [inhibitor, partial curve, poor fit]"}, {"smiles": "COc1ccc(-c2nc(C)nc3c2CN([S+](=O)([O-])c2onc(C)c2C)CC3)cc1", "Potency": "inconclusive: 17.8 µM [inhibitor, single point]"}, {"smiles": "Cc1ccc(-n2nc(CO)c(C(=O)NCCC(C)C)n2)cc1C", "Potency": "inconclusive: 2.51 µM [inhibitor, full curve, poor fit]"}, {"smiles": "COc1cccc(-n2c(=O)c3sc4ccccc4c3n(Cc3c(F)cccc3Cl)c2=O)c1", "Potency": "inconclusive: 25.1 µM [inhibitor, partial curve, poor fit]"}, {"smiles": "O=C(NCc1ccc2c(c1)OCO2)c1nc(-c2cccnc2)c2cnccn12", "Potency": "active: 28.2 µM"}, {"smiles": "COc1ccc2cc(C(=O)N3CCN(S(=O)(=O)c4ccc(C)cc4)CC3)c(C)nc2c1", "Potency": "inconclusive: 28.2 µM [inhibitor, partial curve, poor fit]"}, {"smiles": "CN1CC(=O)N(C2CCNC2)Cc2c1ncnc2N1CC[C@H](N(C)C)C1", "note": "(stereo partly specified)", "Potency": "inconclusive: 44.7 µM [inhibitor, partial curve, poor fit]"}, {"smiles": "Cc1ccc(CNC(=O)c2ccc(Cn3c(SCc4ccc(F)cc4)nc4cccnc43)cc2)o1", "Potency": "inconclusive: 28.2 µM [inhibitor, partial curve, poor fit]"}, {"smiles": "CN1CC[C@H](c2nnc(-c3ccc(Cl)cc3)o2)C1", "Potency": "inconclusive: 35.5 µM [inhibitor, partial curve, poor fit]"}, {"smiles": "CCOC(=O)Cc1csc(NC(=O)c2nc(-c3ccccc3)oc2C)n1", "activity change, negative = inhibition": "inactive: -6.51%"}, {"smiles": "COc1cccc(/C=C/c2nc(C#N)c(NC3CCCCC3)o2)c1", "Potency": "inconclusive: 3.98 µM [inhibitor, full curve, poor fit] and inconclusive: 2 µM [inhibitor, full curve, poor fit]"}, {"smiles": "COc1cccc(NC(=O)[C@@H]2C[C@@H](c3ccc(F)cc3)N(Cc3ccccc3)C2)c1", "activity change, negative = inhibition": "inactive: -10.9% [at 86.2 µM]"}, {"smiles": "CC1=C[C@@H](CNC(=O)CCC(=O)O)[C@H](C(C)C)C[C@H]1Cc1nc2ccc(Cl)cc2[nH]1", "Potency": "inconclusive: 31.6 µM [inhibitor, single point]"}, {"smiles": "CN1Cc2ccc(NCc3ccccc3)nc2C(C)(C(=O)NCCc2cnc[nH]2)C1", "note": "(stereo unspecified)", "Potency": "inconclusive: 35.5 µM [inhibitor, partial curve, poor fit]"}, {"smiles": "COc1ccccc1C1C(C(=O)N2CCCCC2)=C(C)Nc2nc3ccccc3n21", "note": "(stereo unspecified)", "activity change, negative = inhibition": "inconclusive: -37.5% [inhibitor]"}, {"smiles": "Cc1cccc(NC(=O)Nc2ccc(C)n(CC(=O)NCCN3CCCC3)c2=O)c1", "Potency": "inconclusive: 20 µM [inhibitor, single point]"}, {"smiles": "NC(=S)NN=C1CCCCCCCCCCCCC1", "Potency": "inconclusive: 39.8 µM [inhibitor, partial curve, poor fit]"}, {"smiles": "COCCN1C(=O)Cc2ccccc2C1C(=O)NCc1cccc(Cl)c1", "note": "(stereo unspecified)", "activity change, negative = inhibition": "inactive: -15.1%"}, {"smiles": "COc1ccc(COCC(O)COc2ccccc2-c2nc3ccccc3s2)cc1", "note": "(stereo unspecified)", "Potency": "inconclusive: 39.8 µM [inhibitor, single point]"}, {"smiles": "Cc1nn(CC(=O)Nc2ccc3c(c2)nc2n3CCN(C)C2)c(=O)c2ccccc12", "Potency": "inconclusive: 28.2 µM [inhibitor, single point]"}, {"smiles": "CCOC(=O)c1c(NC(=O)c2cc(-c3cccc(Cl)c3)on2)sc(C(C)=O)c1C", "Potency": "inconclusive: 28.2 µM [inhibitor, partial curve, poor fit]"}, {"smiles": "O=C(C1COc2ccccc2O1)N(Cc1cccnc1)c1nc2c(F)cccc2s1", "note": "(stereo unspecified)", "Potency": "inactive"}, {"smiles": "COc1ccccc1C(=O)N1CCC(Oc2ncccc2C(=O)N2CCCCC2)C1", "note": "(stereo unspecified)", "activity change, negative = inhibition": "inactive: -10.3%"}, {"smiles": "Cc1ccc(-c2[nH]ncc2CN2CCN(c3ccc(Cl)cn3)CC2)cc1C", "Potency": "inconclusive: 15.8 µM [inhibitor, partial curve, poor fit]"}, {"smiles": "CC(=O)N1CCC2(CC1)CC(=O)c1ccc(OCC(=O)NC3CCS(=O)(=O)C3)cc1O2", "note": "(stereo unspecified)", "activity change, negative = inhibition": "inactive: -21.9%"}, {"smiles": "COc1ccc2c(c1)-c1nc(NC(=O)c3cccc(Br)c3)sc1CC2", "Potency": "inconclusive: 35.5 µM [inhibitor, partial curve, poor fit]"}, {"smiles": "COc1ccc(CN2CCCC3(COc4ccccc4[S+](=O)([O-])N3)C2)cc1", "note": "(stereo unspecified)", "Potency": "inconclusive: 79.4 µM [inhibitor, single point]"}, {"smiles": "Cc1cc(=O)oc2cc(OC(C)C(=O)NCc3ccccn3)ccc12", "note": "(stereo unspecified)", "Potency": "inconclusive: 28.2 µM [inhibitor, partial curve, poor fit]"}, {"smiles": "COCc1cc(C)nc2c1C(=O)NC(c1ccc(NC(C)=O)cc1)N2Cc1ccccc1", "note": "(stereo unspecified)", "Potency": "inconclusive: 35.5 µM [inhibitor, partial curve, poor fit]"}, {"smiles": "CS(=O)(=O)CC[C@@H](C(=O)NCCc1ccccc1)N1Cc2ccccc2C1=O", "activity change, negative = inhibition": "inconclusive: -38.2% [inhibitor]"}, {"smiles": "Cc1cccc(/C=N/NC(=O)c2cccc(NC(=O)c3ccccc3)c2)n1", "Potency": "inconclusive: 28.2 µM [inhibitor, single point]"}, {"smiles": "CC(c1ccc(F)cc1)N(C)Cc1nc2sccn2c1Br", "note": "(stereo unspecified)", "activity change, negative = inhibition": "inactive: 13.3%"}, {"smiles": "COc1ccccc1OCCNC(=O)c1ccc(Cn2ccn3nc4c(c3c2=O)CCCC4)cc1", "Potency": "active: 25.1 µM"}, {"smiles": "CNCc1ccc(-c2cc(Cl)ccc2Cl)o1", "activity change, negative = inhibition": "inactive: -13.6%"}, {"smiles": "CC(c1ccon1)N(C)C(=O)c1csc2nc(-c3cccc(C(F)(F)F)c3)cn12", "note": "(stereo unspecified)", "Potency": "inconclusive: 20 µM [inhibitor, single point]"}, {"smiles": "CCCOc1ccc(C(C)NC(=O)c2ccc(C)nc2)cc1OC", "note": "(stereo unspecified)", "activity change, negative = inhibition": "inactive: -1.21%"}, {"smiles": "CO[C@H]1[C@H](NC(=O)c2cnn3cccnc23)c2ccccc2C12CCNCC2", "Potency": "inconclusive: 25.1 µM [inhibitor, partial curve, poor fit]"}, {"smiles": "Cc1nc(C)c(C(=O)N2CC(Oc3ccc(-c4noc(-c5ccccc5)n4)cc3)C2)s1", "Potency": "inconclusive: 12.6 µM [inhibitor, partial curve, poor fit]"}, {"smiles": "CCN1c2cc(C(=O)Nc3ccc(SC)cc3)ccc2C(=O)N2CCCCCC21", "note": "(stereo unspecified)", "Potency": "inconclusive: 28.2 µM [inhibitor, partial curve, poor fit]"}, {"smiles": "CCN(CC)C(=O)CN(C)C(=O)Nc1cccc(Cl)c1", "activity change, negative = inhibition": "inactive: 8.95%"}, {"smiles": "CCC(CC)CN1CC2(CCN(C(=O)c3cn4cccnc4n3)CC2)OC1=O", "Potency": "active: 31.6 µM"}, {"smiles": "CCNC(=O)NC(=O)COC(=O)c1sccc1C", "activity change, negative = inhibition": "inactive: -7.73%"}, {"smiles": "O=C(Cn1cc(SCc2cccc(Cl)c2)c2ccccc21)N1CCCCC1", "Potency": "inconclusive: 31.6 µM [inhibitor, single point]"}, {"smiles": "Cc1c(Cl)cccc1NC(=O)N1CCCC(Cn2cnc3cccnc32)C1", "note": "(stereo unspecified)", "activity change, negative = inhibition": "inactive: 7.81%"}, {"smiles": "COc1ccc(/C=C/c2nc(C#N)c(NCc3ccc(C)cc3)o2)cc1OC", "Potency": "inconclusive: 35.5 µM [inhibitor, partial curve, poor fit]"}, {"smiles": "CCC(=O)N1CC(C(=O)N2CCN(c3ccccn3)CC2)C2(CCOCC2)C1", "note": "(stereo unspecified)", "Potency": "active: 31.6 µM"}, {"smiles": "CC(=O)c1ccc(NC(=O)Cn2ccc3cc(Cl)ccc32)cc1", "activity change, negative = inhibition": "inactive: 10.8%"}, {"smiles": "Cc1cccn2c(CN(C)CCc3cnn(C)c3)c(C(=O)N(C)CCc3ccccc3)nc12", "Potency": "inconclusive: 12.6 µM [inhibitor, partial curve]"}, {"smiles": "CC(Oc1ccccc1)C(=O)Nc1cccc(-c2cn3cccnc3n2)c1", "note": "(stereo unspecified)", "Potency": "inconclusive: 15.8 µM [inhibitor, partial curve, poor fit]"}, {"smiles": "Cn1ccnc1CN1C(=O)CO[C@H]2CN(C(=O)c3ccccn3)C[C@H]21", "Potency": "inconclusive: 14.1 µM [inhibitor, partial curve, poor fit]"}, {"smiles": "COc1cc(NC(=O)c2cnc(NCc3ccccc3)nc2C)cc(OC)c1OC", "activity change, negative = inhibition": "inactive: -14.2%"}, {"smiles": "Cc1nn(CC(=O)Nc2ccc3c(c2)nc2n3CCN(C3CCCCC3)C2)c(=O)c2ccccc12", "Potency": "inconclusive: 12.6 µM [inhibitor, partial curve, poor fit]"}, {"smiles": "CC(=O)CC1(C(C#N)C#N)C(=O)Nc2ccccc21", "note": "(stereo unspecified)", "activity change, negative = inhibition": "inactive: -13.6%"}, {"smiles": "COc1ccccc1NC(=O)c1sc(-c2ccc(Cl)cc2)cc1N", "Potency": "inconclusive: 28.2 µM [inhibitor, partial curve, poor fit]"}, {"smiles": "CC(C)CCN1CCC2(CC1)CC(=O)N(c1ccccc1)c1ccccc1O2", "Potency": "inactive"}, {"smiles": "CC1(c2ccccc2)N(Cc2ccccc2C#N)C(=O)OC12CCN(C(=O)Cc1cccc(F)c1)CC2", "note": "(stereo unspecified)", "activity change, negative = inhibition": "inactive: 3.81%"}, {"smiles": "Fc1ccc(-c2[nH]ncc2CNCc2cccc(Cn3cccn3)c2)cc1", "activity change, negative = inhibition": "inactive: 6.39%"}, {"smiles": "O=C(c1cc2cn(C3CC3)cc2s1)N1CCc2ccccc2C1", "Potency": "inconclusive: 14.1 µM [inhibitor, partial curve]"}]}]}
